The campaign covered roughly 45,000 compounds. About 65 (0.1%) were called active. Calls follow the shape of the dose curve; as a rule, active = well fitted activation curve with a large enough effect; inconclusive = small, poorly fitted or top-dose-only effect; inactive = no such curve, though single readings can be large or run the other way. The list shows a part of the results.
Molecular target: Galactocerebrosidase (Homo sapiens) (UniProt P54803)
Assay: A Novel Cell-Based Assay to Identify Small Molecules for B -Galactocerebrosidase; also: 0% is about no effect; nearly all actives have a fitted effect of over 65% in size
Conditions: 145M-Twi-hGALC-G270D cells, HMU-beta-Gal fluorescence, 48 h; series mostly up to 57.5 µM; activation: at the top concentration
In short: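 qHTS, 1536-well; 145M-Twi-hGALC-G270D cells (WT line also made) in DMEM/F12 + 10% FBS; compound incubation on live cells; HMU-β-gal 0.1 mM final, pH 5.2, NaTC; carbonate stop; fluorescence increase = enhanced residual activity.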

UniProt P54803, sequence (P54803 whole entry, looked up): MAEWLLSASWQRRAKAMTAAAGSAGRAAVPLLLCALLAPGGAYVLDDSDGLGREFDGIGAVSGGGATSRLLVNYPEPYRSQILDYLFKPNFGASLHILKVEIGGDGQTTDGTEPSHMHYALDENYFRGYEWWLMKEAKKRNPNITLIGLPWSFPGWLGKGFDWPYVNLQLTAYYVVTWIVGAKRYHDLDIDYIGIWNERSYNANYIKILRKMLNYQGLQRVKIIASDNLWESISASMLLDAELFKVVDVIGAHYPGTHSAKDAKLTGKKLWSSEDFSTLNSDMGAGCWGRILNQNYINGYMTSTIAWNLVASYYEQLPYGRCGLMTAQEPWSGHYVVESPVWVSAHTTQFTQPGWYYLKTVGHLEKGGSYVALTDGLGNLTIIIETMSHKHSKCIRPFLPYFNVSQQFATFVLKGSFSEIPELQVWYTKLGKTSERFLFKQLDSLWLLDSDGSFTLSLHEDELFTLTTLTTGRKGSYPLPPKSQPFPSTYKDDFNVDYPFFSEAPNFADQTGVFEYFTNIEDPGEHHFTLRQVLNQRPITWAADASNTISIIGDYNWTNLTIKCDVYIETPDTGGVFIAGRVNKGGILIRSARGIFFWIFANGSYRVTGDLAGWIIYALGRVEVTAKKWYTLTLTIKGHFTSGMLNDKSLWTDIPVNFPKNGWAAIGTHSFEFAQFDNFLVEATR

activation, inactive:
C#C[C@]1(O)CC[C@H]2[C@@H]3CCC4=Cc5oncc5C[C@]4(C)[C@H]3CC[C@@]21C -7.89%
CCc1ccc(NC(=O)Cn2c(=O)n(Cc3ccc4c(c3)OCO4)c(=O)c3oc4ccccc4c32)cc1 -9.75%
Cc1cc(C)n2nc(NCc3ccccc3Cl)nc2n1 -7.59%
COc1ccc(CNc2nc(-c3ccco3)nn2S(=O)(=O)c2ccc3ccccc3c2)cc1OC -16.3%
Cc1ccc(C)c(NC(=O)Cn2c(=O)n(Cc3nc(C)no3)c(=O)c3cc4c(cc32)OCO4)c1 -2.94%
CCOc1ccccc1CN1C(=O)c2ccccc2C1C(=O)NC1CCCCCC1 (stereo not given) -30.1%
CCC(=O)N1CCc2cc(S(=O)(=O)NC(Cc3ccccc3)C(=O)NCc3ccc(C)cc3)ccc21 (stereo not given) -9.44%
COc1ccc(OCCn2cc(C(=O)c3ccco3)c3ccccc32)cc1 -22.8%
COc1cc(C(=O)NCc2nnnn2-c2ccc(C)c(C)c2)cc(OC)c1OC -9.68%
COC(=O)c1cc2occc2n1Cc1nc(-c2ccccc2C)oc1C -6.77%
Cc1ccc(-c2noc(CN(C3CCCCC3)S(=O)(=O)c3ccc(F)cc3)n2)cc1 -3.85%
CC(=O)Nc1ccc(NC(=O)CSc2cn(CC(=O)N(C(C)C)C(C)C)c3ccccc23)cc1 -5.99%
Cc1cc2oc(C(=O)NCCc3ccc(S(N)(=O)=O)cc3)cc(=O)c2cc1C -1.36%
O=c1c(-c2cc(-c3ccc(F)cc3)nc3c2COc2ccc(Cl)cc2-3)coc2ccc(F)cc12 -24.7%
CC(=O)N1c2ccc(S(=O)(=O)N3CCN(c4cc(Cl)ccc4C)CC3)cc2CC1C (stereo not given) -6.91%
CCC(C)Sc1nc2c([nH]c3ccccc32)c(=O)n1C (stereo not given) -10.6%
COc1ccc(-c2nc(C)c(CCNC(=O)c3ccco3)s2)cc1 -15.9%
CC(C)c1ccc(NC(=O)CSC2=Nc3ccccc3C3=NC(CCC(=O)NCc4ccc(F)cc4)C(=O)N23)cc1 (stereo not given) -20.2%
CCN1CCN(C(=O)c2ccc3c(c2)N(Cc2c(F)cccc2Cl)C(=O)c2ccccc2S3)CC1 -22.4%
Cc1ccccc1COC(=O)c1ccc(-c2nnn(Cc3ccccc3F)n2)cc1 -15.9%
COC(=O)c1ccc(CNC(=O)c2nc(Cn3nc(C)c(Br)c3C)no2)cc1 -23%
O=C(CSc1nc2c([nH]c3ccccc32)c(=O)n1-c1cccc(Cl)c1)NCc1ccccc1 10.6%
COc1cc2c(cc1OC)C(COc1cc(C)cc(C)c1)N(C(=O)c1ccc(S(=O)(=O)N3CCCC3)cc1)CC2 (stereo not given) -21.5%
O=C(CCCCCn1c(=O)[nH]c2ccccc2c1=O)N1CCN(c2ccc(Cl)cc2)CC1 -24.5%
Cc1ccc(C)c(-c2ccc(=O)n(Cc3ccc(F)cc3Cl)n2)c1 3.28%
